Measured values as given in PubChem BioAssay AID686971 (National Center for Advancing Translational Sciences (NCATS), 2013).
Among all 360,000 compounds or so, about 7,500 (2.1%) were called active. Inconclusive results, whose numbers are uncertain, are shown with a selection of clear calls. Calls come from the whole dose curve; as a rule, active = well fitted cell-killing curve with a large enough effect; inconclusive = small, poorly fitted or top-dose-only effect, or effect the other way, or another doubt; inactive = no such curve, though single readings can be large or run the other way. No potency is given beside an inconclusive call; the fits are too rough.

Assay: qHTS for induction of synthetic lethality in tumor cells producing 2HG: qHTS for the HT-1080-IDH1KD cell line;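 for activity, negative = toxicity: 0% = DMSO wells and -100% = cell-free medium wells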
Details: HT-1080 IDH1 knockdown viability, ATP luminescence, 48 h; activity, negative = toxicity: at 46.1 µM (top of the series) unless noted
Outline: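 Viability of IDH1-knockdown HT-1080 fibrosarcoma cells was assessed by CellTiter-Glo after 48 h at 37 °C with titrated compound; concentration-effect curves were classified by fit quality and response size.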
Potency is the fitted concentration of half-maximal effect; tags give direction and shape of the fitted curve.

Compound | Potency | activity, negative = toxicity
O=C(c1ccc(Br)cc1)C(CN1CCOCC1)c1ccccc1 (configuration not stated) | active: 7.31 µM | –
Cc1ccsc1/C=C1\CCc2ccccc2C1=O | inconclusive [cytotoxic, single point] | –
Cc1ccc(OCC(=O)N/N=C\c2cccn2C)c([N+](=O)[O-])c1 | – | inactive: 5.43%
CCOC(=O)C1=CCC(c2ccc(C#N)cc2)N(S(=O)(=O)c2ccc(C)cc2)C1 (configuration not stated) | inconclusive [cytotoxic, partial curve] | –
O=C(CN1C(=O)NC2(CCOc3ccccc32)C1=O)N1CCCCC1 (configuration not stated) | – | inactive: 0.701%
CCc1ccc(NC(=O)CSc2nnc(SCC(=O)Nc3ccc(CC)cc3)n2N)cc1 | inconclusive [cytotoxic, partial curve, poor fit] | –
Cc1cc(Br)cn2c(Cc3ccccc3)c(-c3ccc(F)cc3)nc12 | – | inactive: -0.132%
Cc1ccc(S(=O)(=O)/N=C2\C=C(Nc3ccc(O)cc3)C(=O)c3ccccc32)cc1 | active: 23.1 µM | –
CCn1c2ccccc2c2cc(NS(=O)(=O)c3ccccc3C)ccc21 | inconclusive [cytotoxic, single point] | –
O=C(COc1ccccc1)N/N=C/c1ccc2c(c1)OCO2 | inconclusive [cytotoxic, partial curve] | –
Cc1cccc(NC(=O)CCC(=O)N/N=C/c2cc([N+](=O)[O-])ccc2O)c1 | inconclusive [cytotoxic, partial curve] | –
COc1ccc(NC(=O)CCCn2c(=O)c3sccc3n(Cc3cccc(C)c3)c2=O)cc1 | inconclusive [cytotoxic, single point] | –
Nc1ccccc1OCCOc1ccccc1N | – | inactive: -8.82%
Cc1ccccc1N(C(=O)CS(=O)CC(=O)Nc1ccc(F)cc1)C(C)C(=O)NC(C)(C)C (configuration not stated) | inconclusive [rising, partial curve] | –
COc1c(Br)cc([N+](=O)[O-])c(OC)c1C(=O)NC(=O)Nc1cc(Cl)cc(Cl)c1 | inconclusive [cytotoxic, single point] | –
O=C(NCc1ccncc1)C1CCN(S(=O)(=O)c2cc(Cl)ccc2Cl)CC1 | – | inactive: 0.937%
CC(=O)Oc1ccc2occ(-c3ccccc3)c2c1 | – | inactive: -8.91%
O=[N+]([O-])c1ccc(N=Nc2ccc(O)cc2O)cc1 | active: 5.8 µM | –
CCS(=O)(=O)c1ccc(O)c(NC(=O)Nc2ccc(C(C)(C)C)cc2)c1 | inconclusive [cytotoxic, partial curve] | –
O=[N+]([O-])c1ccc(O)c(Nc2ncnc3ccc(Br)cc23)c1 | inconclusive [cytotoxic, partial curve] | –
Nc1ccccc1OCCOCCOc1ccccc1N | inconclusive [cytotoxic, single point] | –
O=C(c1cc2c(c(-c3cccc(-c4ccc(F)cc4)c3)n1)[C@H](CCO)N(C(=O)c1ccc3c(c1)OCO3)C2)N1CCOCC1 | inconclusive [cytotoxic, single point] | –
Cc1cc(N2CCN(C)CC2)nc2ccc(NC(=S)NCCCN3CCc4ccccc4C3)cc12 | active: 16.4 µM | –

Compound | Potency | activity, negative = toxicity
CSc1ccc(C(O)c2ncc(-c3ccc(F)cc3)[nH]2)cc1 (configuration not stated) | – | inactive: -26.8%
O=C(NCCN1CCOCC1)c1ccccc1-c1ccccc1 | – | inactive: 0.121%
N#Cc1ccc(OCc2nnc(SCC(=O)N3CCCc4ccccc43)n2-c2ccccc2)cc1 | inconclusive [cytotoxic, single point] | –
Cc1cc(Cl)cc2c1NC(=O)[C@]21[C@@H]2C(=O)N(Cc3ccccc3)C(=O)[C@@H]2[C@@H]2CCCN21 | inconclusive [cytotoxic, single point] | –
CCCS(=O)(=O)N1CCN(Cc2ccccc2OCC)CC1 | inconclusive [rising, partial curve] | –
COc1cccc(Cn2c(NCc3cccnc3)nc3c2c(=O)n(C)c(=O)n3C)c1 | active: 5.17 µM | –
C(=NN1CCCCCC1)c1ccc2ccccc2n1 | inconclusive [cytotoxic, partial curve, poor fit] | –
CCOC(=O)c1cnc2c(ccc3ccccc32)c1NCCCN(C)C | active: 20.6 µM | –
COc1ccc(C2c3ccc(O)cc3Oc3ncn4nc(-c5ccco5)nc4c32)cc1OC (configuration not stated) | active: 18.4 µM | –
CCCCCCCCCCC[N+](C)(C)CC/C=C1/c2ccccc2Sc2ccc(Cl)cc21 | inconclusive [cytotoxic, single point] | –
Cc1ccc(S(=O)(=O)N(Cc2ccccc2)C(C)C)cc1 | – | inactive: 1.63%
NC(=O)c1ccc(C(F)(F)F)n(Cc2c(Cl)cccc2Cl)c1=O | inconclusive [cytotoxic, single point] | –
O=c1[nH]c(/C(Cl)=C/c2c(F)cccc2Cl)nc2cc(Cl)ccc12 | inconclusive [cytotoxic, partial curve, poor fit] | –
Cc1cccc2c1-c1sc(C(=O)NCCCN3CCCC(C)C3)cc1CO2 (configuration not stated) | active: 20.6 µM | –
Cc1nc2ccc(S(=O)(=O)Nc3cccc(-c4nc5cccnc5s4)c3)cc2s1 | inconclusive [cytotoxic, single point] | –
Cc1cccc(Cn2nc(-n3cccc3)c3c(C)cc(C)nc32)c1 | – | inactive: 4.59%
COc1ccc(CC(=O)OC(C)C(=O)NC2CCCCC2C)cc1 (configuration not stated) | – | inactive: 12%
CCCCS(=O)(=O)/C=C\C=C/S(=O)(=O)CCCC | inconclusive [cytotoxic, single point] | –
CCCCCC(=O)NC(=S)Nc1ccc(NC(=O)c2ccco2)cc1 | inconclusive [cytotoxic, single point] | –
Oc1ccccc1CNc1cccc2cccnc12 | inconclusive [cytotoxic, partial curve, poor fit] | –
Cc1ccc(C)c(OCC(=O)N/N=C/c2c(C)nn(-c3ccccc3)c2Cl)c1C | – | inactive: 4.2%
Cc1cc(C(F)(F)F)nc(-n2cc(-c3ccccc3)nn2)n1 | inconclusive [rising, partial curve, poor fit] | –
COc1ccc(CCNCC(O)Cn2c3ccccc3c3ccccc32)cc1OC (configuration not stated) | active: 23.1 µM | –

Compound | Potency | activity, negative = toxicity
COc1ccccc1Nc1nc(NCCCN(C)C)nc(N)c1[N+](=O)[O-] | inconclusive [cytotoxic, single point] | –
CCCNC(=O)NC(=O)COC(=O)/C=C/c1cc(Br)ccc1F | inconclusive [rising, single point] | –
CCn1c2ccccc2c2cc(NC(=O)CSc3nnc(-c4ccc(OC)cc4)n3N)ccc21 | inconclusive [cytotoxic, single point] | –
CN(C)c1ccc(-c2ccnc3c2CC(C)(C(=O)NCc2cccc(Cl)c2)O3)cc1 (configuration not stated) | inconclusive [cytotoxic, single point] | –
CCOc1[nH]n(-c2ccccc2)c(=O)c1C=Nc1ccccc1 | inconclusive [cytotoxic, single point] | –
CC(=O)c1cccc(N=Cc2c(O)ccc3ccccc23)c1 | inconclusive [cytotoxic, single point] | –
CC(=O)c1ccc(N2CCN(C(=O)CCC(=O)Nc3ccc4nc(N5CCN(C)CC5)cc(C)c4c3)CC2)cc1 | active: 23.1 µM | –
CCOC(=O)c1sc(NC(=O)c2cccc(S(=O)(=O)N3c4ccccc4CC3C)c2)cc1C (configuration not stated) | inconclusive [cytotoxic, partial curve] | –
COc1ccc(-c2oc3ncn(CCN4CCOCC4)c(=N)c3c2-c2ccc(OC)cc2)cc1 | inconclusive [cytotoxic, single point] | –
Cc1cccc(NC(=O)Cn2cc(C(=O)c3ccco3)c3ccccc32)c1 | inconclusive [cytotoxic, single point] | –
C/C(=N/NC(=O)C(O)(c1ccccc1)c1ccccc1)c1ccc([N+](=O)[O-])o1 | inconclusive [cytotoxic, partial curve] | –
CSc1ncc(-c2ccccc2)cn1 | inconclusive [rising, single point] | –
CC(C)c1ccc(NC(=O)C2(C)Cc3c(-c4cccc(C(N)=O)c4)ccnc3O2)cc1 (configuration not stated) | inconclusive [cytotoxic, partial curve] | –
CN(CC(=O)Nc1ccc(Cl)cc1)c1ccc(S(=O)(=O)N2CCCCC2)cc1[N+](=O)[O-] | inconclusive [cytotoxic, partial curve] | –
COc1cc(OC)c(C(=O)Nc2ccc3ccccc3c2)cc1OC | – | inactive: -9.87%
O=C1[C@@H]2Cc3c([nH]c4ccccc34)C(c3ccccc3)N2C(=O)CN1C1CCN(Cc2ccccc2)CC1 (some centres not stated) | inconclusive [cytotoxic, single point] | –
Cc1[nH]n(-c2ccc(Cl)cc2)c(=O)c1/C=N/n1c(C)nc2ccccc2c1=O | active: 16.4 µM | –
Cc1ccc(S(=O)(=O)N2CC3(O)CN(C(=O)OC(C)C)N(C(=O)OC(C)C)CC3(OC(=O)NCC3CCCCC3)C2)cc1 (configuration not stated) | inconclusive [cytotoxic, single point] | –
Fc1cccc(-c2nnn3c2nc(Cl)c2ccccc23)c1 | inconclusive [cytotoxic, full curve, poor fit] | –
CCN(c1ccc(NC(=O)COC(=O)CCc2nc3ccccc3n2-c2ccccc2)cc1)C(C)C | inconclusive [cytotoxic, single point] | –
Cc1nn(Cc2ccccc2)c2c1C(c1ccc(Cl)cc1)C(C#N)=C(N)O2 (configuration not stated) | inconclusive [cytotoxic, single point] | –
